Reference: a collection of fitness landscapes (doi:10.1016/j.celrep.2020.107928)
Whole data set: some 81,000 sequences, median “one-hybrid fitness for binding parS DNA” near -0.17, cut for the highest 2% near 0.51. This is one part of the list.

B1: Caulobacter ParB omega fusion; a variant is named by its letters at X, in order, B8GW30 (parent)
chain: MESVVVGEPGMSEGRRGLGRGLSALLGEVDAAPAQAPGEQLGGSREAPIEILQRNPDQPRRTFREEDLEDLSNSIREKGVLQPILVRPSPDTAGEYQIVAGERAWRAAQRAGLKTVPIMVRELDDLAVLEIGIIENVQRADLNVLEEALSYKVLMEKFERTQENIAQTIGKSXSHVANXMRLLXLPDEVQSYLVSGELTAXHARAIAAAADPVALAKQIIEGGLSVRETEALARKAPNLSAGKSKGGRPPRVKDTDTQALESDLSSVLGLDVSIDHRGSTGTLTITYATLEQLDDLCNRLTRGI

Variants of: B1
Assay: one-hybrid fitness for binding parS DNA (scaled: cognate 1, non-cognate 0); higher = stronger binding
Details: with parS DNA site
Outline: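 Fitness here means the log change in variant-to-wild-type read ratio between plasmids sequenced before and after selection. That scale was set so cognate equals 1 and non-cognate equals 0. The selection was a bacterial one-hybrid screen of Caulobacter ParB libraries, four specificity codons randomised, in E. coli USO carrying a HIS3 reporter with the site 19 bp from the promoter, grown 48 hours at 37°C on M9-minus-histidine with 0.1 mM IPTG and 5 mM 3-AT.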

| Variant | one-hybrid fitness for binding parS DNA |
| --- | --- |
| THKG | ≤ 0.2 |
| LPRP | ≤ 0.2 |
| TVTN | ≤ 0.2 |
| YKNY | ≤ 0.2 |
| QCFP | ≤ 0.2 |
| QPKT | ≤ 0.2 |
| TGKL | ≤ 0.2 |
| HKKF | ≤ 0.2 |
| PIIR | ≤ 0.2 |
| QMVI | ≤ 0.2 |
| PRTH | ≤ 0.2 |
| HKKG | ≤ 0.2 |
| ADSA | ≤ 0.2 |
| QMGM | ≤ 0.2 |
| QKAR | ≤ 0.2 |
| MANY | ≤ 0.2 |
| QAWH | ≤ 0.2 |
| ICAV | ≤ 0.2 |
| PKFV | ≤ 0.2 |
| MYQR | ≤ 0.2 |
| RNHC | 0.798 |
| RNGK | ≤ 0.2 |
| KNLN | ≤ 0.2 |
| VNIM | ≤ 0.2 |

| Variant | one-hybrid fitness for binding parS DNA |
| --- | --- |
| YPSM | ≤ 0.2 |
| MRDR | ≤ 0.2 |
| GARH | ≤ 0.2 |
| DRRM | ≤ 0.2 |
| RSRH | 0.232 |
| DVAL | ≤ 0.2 |
| LSVP | ≤ 0.2 |
| QPGN | ≤ 0.2 |
| RFQF | ≤ 0.2 |
| QPGI | ≤ 0.2 |
| RGHP | ≤ 0.2 |
| CHNI | ≤ 0.2 |
| CTRA | ≤ 0.2 |
| GKKS | ≤ 0.2 |
| CFNC | ≤ 0.2 |
| HSTE | ≤ 0.2 |
| PLMG | ≤ 0.2 |
| SMKC | ≤ 0.2 |
| RWKE | ≤ 0.2 |
| RMIN | 0.327 |
| AQDA | ≤ 0.2 |
| TIPT | ≤ 0.2 |
| NYRR | ≤ 0.2 |
| IIIR | ≤ 0.2 |

| Variant | one-hybrid fitness for binding parS DNA |
| --- | --- |
| PLAK | ≤ 0.2 |
| PVFM | ≤ 0.2 |
| LVSR | ≤ 0.2 |
| HMDL | ≤ 0.2 |
| RLGP | ≤ 0.2 |
| HLFC | ≤ 0.2 |
| PGHS | ≤ 0.2 |
| GYCL | ≤ 0.2 |
| AQRA | ≤ 0.2 |
| QMQH | ≤ 0.2 |
| NGVK | ≤ 0.2 |
| NHNF | ≤ 0.2 |
| YLNK | ≤ 0.2 |
| RGSS | 0.849 |
| MKVM | ≤ 0.2 |
| IGSF | ≤ 0.2 |
| YQQC | ≤ 0.2 |
| KFMP | ≤ 0.2 |
| GVQP | ≤ 0.2 |
| WLCW | ≤ 0.2 |
| QLSV | ≤ 0.2 |
| AEAT | ≤ 0.2 |
| VYYS | ≤ 0.2 |
| GKYM | ≤ 0.2 |

| Variant | one-hybrid fitness for binding parS DNA |
| --- | --- |
| SILM | ≤ 0.2 |
| DIKR | ≤ 0.2 |
| QDKH | ≤ 0.2 |
| WFAG | ≤ 0.2 |
| NLKS | ≤ 0.2 |
| RIWK | 0.201 |
| QSQS | ≤ 0.2 |
| RYIR | ≤ 0.2 |
| LATP | ≤ 0.2 |
| VFEI | ≤ 0.2 |
| GVKT | ≤ 0.2 |
| SCLR | ≤ 0.2 |
| QMML | ≤ 0.2 |
| GTQN | ≤ 0.2 |
| PFMG | ≤ 0.2 |
| NTQG | ≤ 0.2 |
| FHSC | ≤ 0.2 |
| PRNG | ≤ 0.2 |
| SILN | ≤ 0.2 |
| WDNM | ≤ 0.2 |
| AETK | ≤ 0.2 |
| KSMC | ≤ 0.2 |
| MGVE | ≤ 0.2 |
| HLEV | ≤ 0.2 |

| Variant | one-hybrid fitness for binding parS DNA |
| --- | --- |
| YIPA | ≤ 0.2 |
| FVFG | ≤ 0.2 |
| FTSY | ≤ 0.2 |
| GCPI | ≤ 0.2 |
| PRNV | ≤ 0.2 |
| AHES | ≤ 0.2 |
| VPCG | ≤ 0.2 |
| THDQ | ≤ 0.2 |
| YYPM | ≤ 0.2 |
| YKNT | ≤ 0.2 |
| VAYR | ≤ 0.2 |
| IDTR | ≤ 0.2 |
| RSVK | ≤ 0.2 |
| GTQM | ≤ 0.2 |
| PYFA | ≤ 0.2 |
| HHTS | ≤ 0.2 |
| LLEC | ≤ 0.2 |
| EYKA | ≤ 0.2 |
| RLPY | 0.257 |
| PCAY | ≤ 0.2 |
| TEKA | ≤ 0.2 |
| NCIW | ≤ 0.2 |
| YSFG | ≤ 0.2 |
| VFCS | ≤ 0.2 |

| Variant | one-hybrid fitness for binding parS DNA |
| --- | --- |
| RVYP | 0.213 |
| TNFD | ≤ 0.2 |
| GLEK | ≤ 0.2 |
| LMKT | ≤ 0.2 |
| CHYT | ≤ 0.2 |
| GIQI | ≤ 0.2 |
| WHNR | ≤ 0.2 |
| HHVS | ≤ 0.2 |
| PQDN | ≤ 0.2 |
| SNIG | ≤ 0.2 |
| CFLV | ≤ 0.2 |
| FFLR | ≤ 0.2 |
| THCS | ≤ 0.2 |
| ARIM | ≤ 0.2 |
| YPAT | ≤ 0.2 |
| SVES | ≤ 0.2 |
| TENV | ≤ 0.2 |
| KVNP | ≤ 0.2 |
| YTAT | ≤ 0.2 |
| KPII | ≤ 0.2 |
| DATF | ≤ 0.2 |
| CNAR | ≤ 0.2 |
| LPCD | ≤ 0.2 |
| HMLR | ≤ 0.2 |

| Variant | one-hybrid fitness for binding parS DNA |
| --- | --- |
| RLIQ | ≤ 0.2 |
| HVYR | ≤ 0.2 |
| DCPT | ≤ 0.2 |
| ECCR | ≤ 0.2 |
| RRYK | ≤ 0.2 |
| FRCS | ≤ 0.2 |
| MSSL | ≤ 0.2 |
| SLIC | ≤ 0.2 |
| TSEI | ≤ 0.2 |
| TWMT | ≤ 0.2 |
| LSMT | ≤ 0.2 |
| GWHC | ≤ 0.2 |
| NKIM | ≤ 0.2 |
| PSYT | ≤ 0.2 |
| YKIR | ≤ 0.2 |
| VSGG | ≤ 0.2 |
| IQAG | ≤ 0.2 |
| QTVA | ≤ 0.2 |
| HYNV | ≤ 0.2 |
| AVGV | ≤ 0.2 |
| DGDC | ≤ 0.2 |
| NKLE | ≤ 0.2 |
| WPLT | ≤ 0.2 |
| SLCR | ≤ 0.2 |

| Variant | one-hybrid fitness for binding parS DNA |
| --- | --- |
| IQRC | ≤ 0.2 |
| SHKR | ≤ 0.2 |
| QHVG | ≤ 0.2 |
| QLAY | ≤ 0.2 |
| QMLV | ≤ 0.2 |
| YIYL | ≤ 0.2 |
| QRER | ≤ 0.2 |
| VIYR | ≤ 0.2 |
| DDED | ≤ 0.2 |
| VTFW | ≤ 0.2 |
| HSMC | ≤ 0.2 |
| IWGG | ≤ 0.2 |
| DSFP | ≤ 0.2 |
| WIIG | ≤ 0.2 |
| RNTT | 0.746 |
| DLTM | ≤ 0.2 |
| IRTM | ≤ 0.2 |
| AKES | ≤ 0.2 |
| NSRM | ≤ 0.2 |
| MNQC | ≤ 0.2 |
| CDCT | ≤ 0.2 |
| YEET | ≤ 0.2 |
| QHTV | ≤ 0.2 |
| NTGI | ≤ 0.2 |

| Variant | one-hybrid fitness for binding parS DNA |
| --- | --- |
| KQGG | ≤ 0.2 |
| SGMQ | 0.236 |
| MTLA | ≤ 0.2 |
| LRCY | ≤ 0.2 |
| DDLL | ≤ 0.2 |
| SLAL | ≤ 0.2 |
| YFQG | ≤ 0.2 |
| ANYG | ≤ 0.2 |
| TTKG | ≤ 0.2 |
| YVRE | ≤ 0.2 |
| WPVR | ≤ 0.2 |
| QRQN | ≤ 0.2 |
| VLCS | ≤ 0.2 |
| HSPK | ≤ 0.2 |
| KAFS | ≤ 0.2 |
| GVSS | ≤ 0.2 |
| LHFT | ≤ 0.2 |
| DALI | ≤ 0.2 |
| TMKI | ≤ 0.2 |
| YHGG | ≤ 0.2 |
| PQYV | ≤ 0.2 |
| LSWG | ≤ 0.2 |
| NCMR | ≤ 0.2 |
| VDMG | ≤ 0.2 |

| Variant | one-hybrid fitness for binding parS DNA |
| --- | --- |
| MKNF | ≤ 0.2 |
| QGDC | ≤ 0.2 |
| RELT | ≤ 0.2 |
| TEKH | ≤ 0.2 |
| APAY | ≤ 0.2 |
| RKCP | ≤ 0.2 |
| QKHE | ≤ 0.2 |
| ESAC | ≤ 0.2 |
| KVKM | ≤ 0.2 |
| CRFY | ≤ 0.2 |
| DPIE | ≤ 0.2 |
| WRAC | ≤ 0.2 |
| RRYH | ≤ 0.2 |
| HAAS | ≤ 0.2 |
| GERI | ≤ 0.2 |
| QPVP | ≤ 0.2 |
| CISV | ≤ 0.2 |
| AIYP | ≤ 0.2 |
| DPAG | ≤ 0.2 |
| ILDE | ≤ 0.2 |
| QRTL | ≤ 0.2 |
| KLGC | ≤ 0.2 |
| DISN | ≤ 0.2 |
| SPTT | ≤ 0.2 |

| Variant | one-hybrid fitness for binding parS DNA |
| --- | --- |
| VGAG | ≤ 0.2 |
| LRPS | ≤ 0.2 |
| PYSI | ≤ 0.2 |
| NERT | ≤ 0.2 |
| MAML | ≤ 0.2 |
| YSMY | ≤ 0.2 |
| NITF | ≤ 0.2 |
| RPSV | ≤ 0.2 |
| TRFA | ≤ 0.2 |
| RMTW | 0.261 |
| FWSG | ≤ 0.2 |
| VKSG | ≤ 0.2 |
| WMSC | ≤ 0.2 |
| LWYG | ≤ 0.2 |
| HWWF | ≤ 0.2 |
| CPAN | ≤ 0.2 |
| MIFS | ≤ 0.2 |
| RMWE | ≤ 0.2 |
| VDRW | ≤ 0.2 |
| QRNI | ≤ 0.2 |
| TKRC | ≤ 0.2 |
| VICG | ≤ 0.2 |
| AKSC | ≤ 0.2 |
| RQLC | 0.952 |

| Variant | one-hybrid fitness for binding parS DNA |
| --- | --- |
| AEQF | ≤ 0.2 |
| FKER | ≤ 0.2 |
| SRGA | ≤ 0.2 |
| ACQS | ≤ 0.2 |
| LRSM | ≤ 0.2 |
| TMRP | ≤ 0.2 |
| ADWT | ≤ 0.2 |
| TGVR | ≤ 0.2 |
| NTYS | ≤ 0.2 |
| VLQS | ≤ 0.2 |
| FAAT | ≤ 0.2 |
| WYHT | ≤ 0.2 |
| EPGS | ≤ 0.2 |
| RVMR | ≤ 0.2 |
| KQTA | ≤ 0.2 |
| HNHC | ≤ 0.2 |
| PLRE | ≤ 0.2 |
| YRRT | ≤ 0.2 |
| SVHS | ≤ 0.2 |
| RKKT | 0.604 |
| DGHN | ≤ 0.2 |
| KRRY | ≤ 0.2 |
| RTPR | ≤ 0.2 |
| PSSG | ≤ 0.2 |

| Variant | one-hybrid fitness for binding parS DNA |
| --- | --- |
| ETGC | ≤ 0.2 |
| CTTN | ≤ 0.2 |
| PSRH | ≤ 0.2 |
| HLYY | ≤ 0.2 |
| QLTY | ≤ 0.2 |
| PLTD | ≤ 0.2 |
| SPWT | ≤ 0.2 |
| RRYL | ≤ 0.2 |
| NNNS | ≤ 0.2 |
| PRQR | ≤ 0.2 |
| HILL | ≤ 0.2 |
| HTWK | ≤ 0.2 |
| KKMR | ≤ 0.2 |
| SVNC | ≤ 0.2 |
| EGSN | ≤ 0.2 |
| NNYM | ≤ 0.2 |
| FRIW | ≤ 0.2 |
| NRVC | ≤ 0.2 |
